In patent US8410178B2, “CIS 3,4-dihydroxy-2-(3-methylbutanoyl)-5-(3-methylbutyl)-4-(4-methylpentanoyl)cyclopent-2-en-1-derivatives, substantially enantiomerically pure compositions and methods” (KinDex Therapeutics, LLC, priority 2010, dated 2013):

Target: voltage-gated sodium channel type II (SCN2A) (Rattus norvegicus, UniProt P04775)
Details: binding target SCN2A; competitor ligand Veratridine

| Compound | nH |
| --- | --- |
| CC(C)CCC(=O)[C@]1(O)C(O)=C(C(=O)CC(C)C)C(=O)[C@H]1CCC(C)C [(−)-KDT501] | 0.7 |
| CC(C)CCC(=O)[C@@]1(O)C(O)=C(C(=O)CC(C)C)C(=O)[C@@H]1CCC(C)C.[K] [(+)-KDT501, (+)-(4S,5R)-3,4-dihydroxy-2-(3-methylbutanoyl)-5-(3-methylbutyl)-4-(4-methylpentanoyl)cyclopent-2-en-1-one potassium salt] | 1.7 |
